Measurements reported in the supplement of paper PMC10441789.
Some of the results follow. Antibody binding of pooled human sera (four to six donors per pool; dilution not stated) to peptides of the Trypanosoma cruzi antigen TSSA on microarrays. Quantile-normalised fluorescence in arbitrary units, mean of duplicate arrays; higher = more binding. No active / inactive call. The uninfected pools are read here as the healthy donors of the same country. The strongest signals lie near the top of the scale (about 60,000).

Key:
Test in all cases: antibody binding signal (normalised fluorescence) (arbitrary fluorescence units); higher = stronger serum antibody binding to peptide
[1] = system: pooled sera of chronic Chagas disease patients, Argentina
Procedure: (§1)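 Microarray of 15-residue peptides over residues 30-55 of Trypanosoma cruzi TSSAII, each with 1 to 10 substitutions at naturally variable positions, probed with one serum pool per country.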

[2] = system: pooled sera of chronic Chagas disease patients, Bolivia
Procedure: as §1

[3] = system: pooled sera of chronic Chagas disease patients, Brazil
Procedure: as §1

[4] = system: pooled sera of chronic Chagas disease patients, Colombia
Procedure: as §1

[5] = system: pooled sera of chronic Chagas disease patients, Mexico
Procedure: as §1

[6] = system: pooled sera of chronic Chagas disease patients, USA
Procedure: as §1

[7] = system: pooled sera of uninfected people, Argentina
Procedure: as §1

[8] = system: pooled sera of uninfected people, Bolivia
Procedure: as §1

[9] = system: pooled sera of uninfected people, Brazil
Procedure: as §1

[10] = system: pooled sera of uninfected people, Colombia
Procedure: as §1

[11] = system: pooled sera of uninfected people, Mexico
Procedure: as §1

[12] = system: pooled sera of uninfected people, USA
Procedure: as §1

Sequence | antibody binding signal [1] | antibody binding signal [2] | antibody binding signal [3] | antibody binding signal [4] | antibody binding signal [5] | antibody binding signal [6] | antibody binding signal [7] | antibody binding signal [8] | antibody binding signal [9] | antibody binding signal [10] | antibody binding signal [11] | antibody binding signal [12]
NKTAAGETPSQPGAS | 1090 | 7500 | 33800 | 480 | 418 | 1450 | 534 | 1760 | 530 | 661 | 304 | 1320
PSGKENKPAAGETPS | 9600 | 6960 | 14100 | 10800 | 11000 | 10600 | 7610 | 5360 | 428 | 660 | 669 | 285
PSGTEKKAATGGAPS | 12000 | 400 | 3220 | 3850 | 5150 | 4340 | 839 | 609 | 116 | 915 | 202 | 369
GKDKKTAAGEAPSQP | 658 | 3240 | 25200 | 544 | 667 | 3800 | 178 | 101 | 95.4 | 303 | 72.5 | 71.2
GKDNKTAAGETPSPS | 2990 | 387 | 1980 | 5890 | 5740 | 4430 | 311 | 288 | 134 | 258 | 213 | 1610
KKAAAGEAPSQSGAS | 264 | 9810 | 8000 | 255 | 157 | 7090 | 221 | 162 | 108 | 76.7 | 112 | 227
ENKTATGETPSQPGA | 2160 | 5680 | 36600 | 281 | 233 | 8460 | 138 | 948 | 350 | 233 | 272 | 241
SGKENKAAAGETPSQ | 5320 | 2670 | 22800 | 8930 | 6480 | 18900 | 9510 | 3890 | 106 | 685 | 559 | 159
KDKKPAAGGTPSQSG | 157 | 171 | 213 | 1060 | 171 | 269 | 105 | 74.9 | 659 | 85.3 | 76.8 | 86.7
GTDKKPATGGTPSPS | 1000 | 484 | 1530 | 7430 | 1810 | 1200 | 219 | 530 | 627 | 296 | 364 | 182
SGTENKAAAGETPSQ | 37200 | 8540 | 20200 | 478 | 503 | 5280 | 442 | 418 | 135 | 171 | 165 | 112
PPSGTENKPATGGAP | 48100 | 48200 | 48900 | 361 | 4520 | 21000 | 5120 | 2970 | 908 | 960 | 804 | 1400
SGKENKPATGEAPSP | 49100 | 49800 | 49700 | 1620 | 2810 | 33300 | 8690 | 4930 | 385 | 397 | 721 | 217
SGKDKKTAAGGAPSP | 386 | 189 | 277 | 4380 | 910 | 984 | 139 | 107 | 115 | 236 | 102 | 139
TEKKPATGETPSQPG | 32500 | 26900 | 42200 | 310 | 216 | 22800 | 222 | 689 | 603 | 252 | 1620 | 468
PPSGKEKKPATGETP | 33200 | 4940 | 14800 | 2080 | 7500 | 15600 | 562 | 1100 | 123 | 410 | 1390 | 340
TDKKTATGETPSPSG | 490 | 705 | 872 | 246 | 295 | 7630 | 252 | 222 | 287 | 119 | 317 | 2600
KDKKTAAGGAPSPPG | 162 | 189 | 317 | 2400 | 219 | 379 | 122 | 102 | 100 | 164 | 93.3 | 127
KENKAATGEAPSQPG | 27300 | 27300 | 40000 | 213 | 324 | 22900 | 284 | 163 | 137 | 123 | 102 | 202
GKDKKTATGETPSQP | 1400 | 389 | 19800 | 2180 | 2350 | 5590 | 207 | 114 | 135 | 104 | 92.1 | 88.6
TPPSGKEKKPAAGEA | 17900 | 398 | 746 | 686 | 26400 | 2140 | 713 | 926 | 135 | 453 | 73.4 | 365
SGKEKKAATGEAPSP | 23200 | 6350 | 19700 | 1200 | 3010 | 19300 | 568 | 200 | 101 | 245 | 99.2 | 137
TPPSGKEKKAAAGGT | 4780 | 232 | 369 | 1210 | 12900 | 1740 | 250 | 190 | 651 | 162 | 82.6 | 138
TDNKPAAGGAPSQPG | 1820 | 1720 | 22000 | 888 | 254 | 584 | 139 | 275 | 459 | 225 | 337 | 166
EKKAAAGGAPSPSGA | 693 | 207 | 259 | 5450 | 844 | 1050 | 214 | 532 | 222 | 149 | 120 | 531
